From paper PMC4336329 (PLoS ONE, 2015)
In all, about 310,000 compounds went through this assay and about 2,200 (0.71%) showed an effect of 50% or more. The effect is printed as a negative number. This is one part of the list. Where a SMILES comes first, the peptide text is derived from it. The star is where a group is joined. Boc = CC(C)(C)OC(=O)*

Target: human ether-à-go-go-related gene (hERG) potassium channel (human, UniProt Q12809)
Assay: primary screen, population patch clamp on CHO cells stably expressing hERG

Chain of human ether-à-go-go-related gene (hERG) potassium channel (Q12809 whole entry, looked up): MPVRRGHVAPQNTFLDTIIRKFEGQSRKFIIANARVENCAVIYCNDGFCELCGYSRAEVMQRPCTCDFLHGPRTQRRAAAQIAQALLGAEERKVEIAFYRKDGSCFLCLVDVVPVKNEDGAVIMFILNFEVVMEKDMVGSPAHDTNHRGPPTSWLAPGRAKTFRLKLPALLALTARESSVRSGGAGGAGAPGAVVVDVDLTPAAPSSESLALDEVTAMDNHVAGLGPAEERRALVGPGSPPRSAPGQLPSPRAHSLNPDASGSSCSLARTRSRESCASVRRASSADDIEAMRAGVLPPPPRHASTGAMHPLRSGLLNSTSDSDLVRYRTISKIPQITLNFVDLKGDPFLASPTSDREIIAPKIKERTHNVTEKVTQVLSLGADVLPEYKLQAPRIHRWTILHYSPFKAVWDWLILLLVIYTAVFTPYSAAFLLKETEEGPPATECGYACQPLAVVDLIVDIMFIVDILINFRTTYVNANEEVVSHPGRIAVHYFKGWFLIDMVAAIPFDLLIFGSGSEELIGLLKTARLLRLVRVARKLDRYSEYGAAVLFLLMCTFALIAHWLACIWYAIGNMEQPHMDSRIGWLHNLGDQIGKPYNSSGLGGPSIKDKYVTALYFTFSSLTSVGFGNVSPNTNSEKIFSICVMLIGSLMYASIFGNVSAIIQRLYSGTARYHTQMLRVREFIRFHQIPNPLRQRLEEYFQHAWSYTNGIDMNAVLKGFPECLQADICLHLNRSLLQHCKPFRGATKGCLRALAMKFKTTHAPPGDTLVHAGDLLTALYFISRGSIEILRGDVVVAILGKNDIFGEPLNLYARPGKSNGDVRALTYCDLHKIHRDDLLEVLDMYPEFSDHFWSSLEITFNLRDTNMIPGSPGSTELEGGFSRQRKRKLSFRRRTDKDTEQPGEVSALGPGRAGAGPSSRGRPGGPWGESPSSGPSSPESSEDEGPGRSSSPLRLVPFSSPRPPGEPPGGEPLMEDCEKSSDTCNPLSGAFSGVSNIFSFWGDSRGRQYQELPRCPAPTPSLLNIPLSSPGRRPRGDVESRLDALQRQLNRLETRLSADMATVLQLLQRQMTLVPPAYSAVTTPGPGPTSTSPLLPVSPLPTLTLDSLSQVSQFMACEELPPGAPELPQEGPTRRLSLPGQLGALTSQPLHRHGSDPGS

| SMILES | hERG current change (%, negative = inhibition) at 1uM |
| --- | --- |
| CN(C[C@H](Cc1ccccc1)N(C[C@H](Cc1ccccc1)N(CCc1cc(C(F)(F)F)cc(C(F)(F)F)c1)N=O)N=O)N=O.[Na+] | 10.1% |
| COc1cccc(CN2CCN(C(=O)c3ccco3)CC2)c1.O=C(O)C(=O)O | 6.67% |
| CCOc1ccc(CN2CCN(C(=O)c3ccccc3)CC2)cc1 | -1.03% |
| C=C(C)Cn1c(-c2cccs2)n[nH]c1=S | 5.03% |
| O=C(NC(=O)c1ccc(Cl)cc1)Nc1cc(N2CCCCC2)ncn1 | 9.32% |
| CCN(c1ccc(NC(=O)CSCc2c(C)noc2C)cc1)C(C)C | 6.49% |
| COc1ccc(N(CC(=O)Nc2ccc(S(=O)(=O)N3CCOCC3)cc2)S(=O)(=O)c2ccccc2)cc1 | 10.5% |
| COc1ccc(N2CCN(C(=O)c3cc(-c4cc(OC)ccc4OC)nc4ccccc34)CC2)cc1 | 11.5% |
| COc1ccccc1C(CNC(=O)C1CC(=O)N(Cc2ccc(C)cc2)C1)N1CCCC1 (stereo not drawn) | 2.22% |
| COc1ccccc1CC(=O)NNC(=O)c1ccc(C(C)(C)C)cc1 | 8.63% |
| CCO[C@H]1OC(C(=O)NC2CC2)=C[C@@H](c2ccccc2)[C@@H]1CCCO | 12.1% |
| Cc1nn(-c2ccccc2)c2nc(C(F)(F)F)[nH]c(=O)c12 | 12.6% |
| Cl.O=C(NCCN1CCOCC1)c1cc(S(=O)(=O)Nc2ccccc2F)c(Cl)cc1Cl | 10.3% |
| CC(=O)Nc1ccc(S(=O)(=O)N(Cc2cccnc2)Cc2cc3ccccc3[nH]c2=O)cc1 | 16.2% |
| O=C(c1cccs1)N1CCCC(c2nc3c(nnn3Cc3cccc(Cl)c3)c(=O)[nH]2)C1 (stereo not drawn) | 15.1% |
| O=C(CSc1nnc(Cc2cc(=O)[nH]c(=O)[nH]2)n1-c1ccc(Cl)cc1)N1CCc2ccccc21 | 10.4% |
| Cc1ccc(CNCc2ccco2)cc1.O=C(O)C(=O)O | 6.22% |
| CC(=O)N1N=C2C3CCN(CC3)C2C1c1cccc2ccccc12 (stereo not drawn) | 9.46% |
| COc1ccc(/C=N/Nc2nc(C)c([N+](=O)[O-])c(N(C)c3ccccc3)n2)cc1OC | 1.54% |
| CC(=O)c1ccc(N=C2C(=O)Nc3ccccc32)cc1 | 4.5% |
| CNC(=S)Nc1ccc(C(N)=O)cc1 | 10.2% |
| CCCc1nnc(NC(=O)Nc2ccccc2OC)s1 | 15.5% |

| SMILES | hERG current change (%, negative = inhibition) at 1uM |
| --- | --- |
| CSCCC1NC(=O)N(C(C)C(=O)Nc2cc(Cl)cc(Cl)c2)C1=O (stereo not drawn) | 2.69% |
| Cc1cc(NC(=O)c2cc(C(C)C)on2)nn1Cc1ccc(Cl)cc1 | 9.74% |
| Cn1cc(C(=O)N2CCN(c3ccccn3)CC2)c(=O)c2cc(S(=O)(=O)N3CCOCC3)ccc21 | -5.96% |
| COc1ccc(NC(=O)CC(Cc2ccc(Cl)cc2)C(=O)O)cc1 (stereo not drawn) | 14.3% |
| Cc1cc(C)cc(N(CC(=O)NCc2ccc(F)cc2)C(=O)CCC(=O)Nc2ccccn2)c1 | 13.1% |
| Cc1cc(C)c(S(=O)(=O)NC(C)C)c(C)c1-n1cnnn1 | 9.48% |
| CCCCOc1ccc(C(=O)NN2CCOCC2)cc1 | 11.5% |
| CCN(CC(=O)NC1CC1)S(=O)(=O)c1ccc(OC)cc1 | 17.1% |
| COc1ccc(S(=O)(=O)n2cnc(C)c2)cc1 | 17.8% |
| CC12CCC(C(=O)NCC3CCCO3)(OC1=O)C2(C)C (stereo not drawn) | 13% |
| CC(C(=O)NCCN1C(=O)S/C(=C\c2cccs2)C1=O)N1C(=O)c2ccccc2C1=O (stereo not drawn) | -7.59% |
| CC1(C)CCc2c([nH]c3ccccc3c2=O)O1 | 14.1% |
| Cn1nc([N+](=O)[O-])nc1Oc1ccccc1F | 5.86% |
| COC(=O)[C@@H]1CCCN1C(=O)[C@@H](NC(=O)OC(C)(C)C)C(C)C (Boc-Val-Pro-OMe) | 12.9% |
| O=S(=O)(c1ccc(F)cc1)N1CCc2ccccc21 | -0.784% |
| O=[N+]([O-])c1ccc(S(=O)(=O)N/N=C/c2ccc3c(c2)OCO3)cc1 | 4.85% |
| CCOC(=O)c1c(NC(=O)Cn2nnc(-c3ccc(Cl)cc3)n2)sc(CC)c1C | 16.2% |
| COc1ccccc1N/C=C/c1onc(C)c1[N+](=O)[O-] | 12.4% |
| CCN(C(=O)c1ccc(NC(C)=O)cc1)c1ccccc1 | -1.02% |
| COc1ccc(C2=NN(C(=O)c3ccccc3)C(c3ccc(OC)c(OC)c3)C2)c(OC(C)=O)c1 (stereo not drawn) | 25.9% |
| CCOC(=O)N1CCC(N2C(=O)c3ccc(C(=O)Nc4ccc(OC)cc4)cc3C2=O)CC1 | 14.1% |
| N/C(=N\OC(=O)Cc1ccccc1[N+](=O)[O-])c1ccccn1 | 5.59% |

| SMILES | hERG current change (%, negative = inhibition) at 1uM |
| --- | --- |
| CCN(CC)C(=O)c1cn(CCC#N)nc1-c1ccc2c(c1)OCCO2 | 15.2% |
| COc1cccc(C=Nc2cc(C)cc(C)c2)c1O | 8.78% |
| O=C(CN1C(=O)S/C(=C\c2cc(Cl)c(O)c(Cl)c2)C1=O)Nc1ccccc1 | 17.8% |
| COc1ccc(CCNC(=O)c2cc(C)oc2C)cc1 | 10.3% |
| COc1cc(-c2nc(-c3ccccn3)no2)cc(OC)c1OC | 6.95% |
| CN(C)c1ccc(-c2ccc([C@H]3[C@@H]4C=CCC[C@@]4(C)C(=O)N3Cc3ccccc3)c(F)c2)cc1 | 11.4% |
| COc1cc(NC(=O)C2CC(=O)N(CCc3ccc(F)cc3)C2)cc(OC)c1OC (stereo not drawn) | 12.1% |
| CCOC(=O)c1ccc(S(=O)(=O)NNC(=O)COc2ccc(C)cc2)cc1 | 19.2% |
| Cc1ccc(-c2csc(N(CCO)CCCn3c(C(F)(F)F)nc4cc(C(F)(F)F)ccc43)n2)cc1 | 8.62% |
| CC1CCCC(C)N1C(=O)COC(=O)c1n[nH]c(=O)c2ccccc12 (stereo not drawn) | 5.87% |
| Cc1nnn(C23CC4CC(CC(CC(=O)Nc5cccc(F)c5)(C4)C2)C3)n1 | -1.04% |
| Cc1cccc(NC(=O)CCN2C(=O)c3ccccc3C2=O)c1 | 5.06% |
| CC(Sc1ccc(Cl)cc1)C(=O)Nc1ccccc1-c1ccccc1 (stereo not drawn) | 17.4% |
| Cc1csc2c(N3CCN(S(=O)(=O)c4ccc(Cl)cc4)CC3)ncnc12 | 9.13% |
| COc1cccc(CNC(=O)C2CCN(S(=O)(=O)N3CCC4(CC3)OCCO4)CC2)c1 | 7.66% |
| CC(C)c1onc(C(=O)NCc2ccccc2)c1[N+](=O)[O-] | 12.1% |
| COc1ccc(C(=O)COC(=O)c2cnc(C)cn2)c(OC)c1 | -23.5% |
| O=[N+]([O-])c1cccc(S(=O)(=O)N/N=C\c2ccc3c(c2)OCO3)c1 | 2.95% |
| Cc1ccccc1-n1c(-c2ccoc2C)n[nH]c1=S | 12% |
| CNCCCCOc1ccc(C(C)(C)C)cc1Cl.O=C(O)C(=O)O | 10.5% |
| CC1C[C@@]2(NC(=O)NC2=O)C(C)CN1C (stereo partly drawn) | 14.9% |
| OCCN(Cc1ccccc1)C(=S)NC1CCCCC1 | 13.2% |

| SMILES | hERG current change (%, negative = inhibition) at 1uM |
| --- | --- |
| CC1(C)CC(=O)C(C=Nc2ccc(C(=O)c3ccccc3)cc2N=CC2=C(O)CC(C)(C)CC2=O)=C(O)C1 | 8.62% |
| N[C@@H](Cc1ccccc1)C(=O)N1CCC(C(=O)NCC(=O)Nc2ccc(F)cc2)CC1 | 8.41% |
| CCCNC(=O)C1CC(=O)N(c2ccc(OCc3ccc(Cl)cc3)cc2)C1 (stereo not drawn) | 13.3% |
| COC(=O)C1=C(C)Nc2nnnn2C1c1cccnc1 (stereo not drawn) | 13.1% |
| CSc1nnc(-c2cc(C)on2)n1-c1ccccc1 | 7.24% |
| Nc1ncnc2c1c(-c1ccc(Oc3ccccc3)cc1)cn2C1CCCC1 | 11.9% |
| O=C(O)c1ccccc1NS(=O)(=O)c1cccc(-n2sc3ccccc3c2=O)c1 | 12.2% |
| Cc1ccsc1C(=O)N1CCCC(CO)(Cc2ccccc2)C1 (stereo not drawn) | 9.83% |
| Cc1cc(C(=O)NCC23CC4CC(CC(C4)C2)C3)c(C)o1 | 2.47% |
| CC(C)c1nn2c(N)c(/C=C3\C=Nc4ccccc43)c(=O)nc2s1 | 14.2% |
| CCOC(=O)NC1C=CS(=O)(=O)C1 (stereo not drawn) | 13.4% |
| O=S(=O)(NC1CCCCC1)c1ccc(F)c2ccccc12 | 17.5% |
| Nc1c(C(=O)OCC2CCCO2)c2nc3ccccc3nc2n1Cc1cccs1 (stereo not drawn) | -1.08% |
| COc1ccccc1-c1cc(C2CC2)nc(N)c1C#N | -5.25% |
| CC1CCCCN1C(=O)c1cc2c(=O)n3ccccc3nc2s1 (stereo not drawn) | 2.7% |
| CN(C)CCCN(C(=O)c1cc(-c2cccs2)nc2ccccc12)c1nc2ccc(F)cc2s1.Cl | 13.3% |
| CCOc1ccc(-c2cccc(NC(=O)c3ccco3)c2)nn1 | 7.43% |
| COC(=O)CSc1nnc(-c2sc3cc(OC)ccc3c2Cl)n1C | 4.01% |
| COC(=O)c1cc(NC2c3ccccc3C(=O)N2Cc2ccco2)cc(C(=O)OC)c1 (stereo not drawn) | 5.13% |
| Cc1ccc(-c2n[nH]c(=S)n2/N=C/c2cccs2)cc1 | 16.1% |
| O=C(Nc1nc(-c2ccc(F)cc2)cs1)c1cccnc1 | 17% |
